The values below come from publication PMC5884809, “ETV2-TET1/TET2 Complexes Induce Endothelial Cell-Specific Robo4 Expression via Promoter Demethylation”.

Sequences of proteins named here, by UniProt entry; tags and fusion partners are left off.
UniProt Q8NFU7: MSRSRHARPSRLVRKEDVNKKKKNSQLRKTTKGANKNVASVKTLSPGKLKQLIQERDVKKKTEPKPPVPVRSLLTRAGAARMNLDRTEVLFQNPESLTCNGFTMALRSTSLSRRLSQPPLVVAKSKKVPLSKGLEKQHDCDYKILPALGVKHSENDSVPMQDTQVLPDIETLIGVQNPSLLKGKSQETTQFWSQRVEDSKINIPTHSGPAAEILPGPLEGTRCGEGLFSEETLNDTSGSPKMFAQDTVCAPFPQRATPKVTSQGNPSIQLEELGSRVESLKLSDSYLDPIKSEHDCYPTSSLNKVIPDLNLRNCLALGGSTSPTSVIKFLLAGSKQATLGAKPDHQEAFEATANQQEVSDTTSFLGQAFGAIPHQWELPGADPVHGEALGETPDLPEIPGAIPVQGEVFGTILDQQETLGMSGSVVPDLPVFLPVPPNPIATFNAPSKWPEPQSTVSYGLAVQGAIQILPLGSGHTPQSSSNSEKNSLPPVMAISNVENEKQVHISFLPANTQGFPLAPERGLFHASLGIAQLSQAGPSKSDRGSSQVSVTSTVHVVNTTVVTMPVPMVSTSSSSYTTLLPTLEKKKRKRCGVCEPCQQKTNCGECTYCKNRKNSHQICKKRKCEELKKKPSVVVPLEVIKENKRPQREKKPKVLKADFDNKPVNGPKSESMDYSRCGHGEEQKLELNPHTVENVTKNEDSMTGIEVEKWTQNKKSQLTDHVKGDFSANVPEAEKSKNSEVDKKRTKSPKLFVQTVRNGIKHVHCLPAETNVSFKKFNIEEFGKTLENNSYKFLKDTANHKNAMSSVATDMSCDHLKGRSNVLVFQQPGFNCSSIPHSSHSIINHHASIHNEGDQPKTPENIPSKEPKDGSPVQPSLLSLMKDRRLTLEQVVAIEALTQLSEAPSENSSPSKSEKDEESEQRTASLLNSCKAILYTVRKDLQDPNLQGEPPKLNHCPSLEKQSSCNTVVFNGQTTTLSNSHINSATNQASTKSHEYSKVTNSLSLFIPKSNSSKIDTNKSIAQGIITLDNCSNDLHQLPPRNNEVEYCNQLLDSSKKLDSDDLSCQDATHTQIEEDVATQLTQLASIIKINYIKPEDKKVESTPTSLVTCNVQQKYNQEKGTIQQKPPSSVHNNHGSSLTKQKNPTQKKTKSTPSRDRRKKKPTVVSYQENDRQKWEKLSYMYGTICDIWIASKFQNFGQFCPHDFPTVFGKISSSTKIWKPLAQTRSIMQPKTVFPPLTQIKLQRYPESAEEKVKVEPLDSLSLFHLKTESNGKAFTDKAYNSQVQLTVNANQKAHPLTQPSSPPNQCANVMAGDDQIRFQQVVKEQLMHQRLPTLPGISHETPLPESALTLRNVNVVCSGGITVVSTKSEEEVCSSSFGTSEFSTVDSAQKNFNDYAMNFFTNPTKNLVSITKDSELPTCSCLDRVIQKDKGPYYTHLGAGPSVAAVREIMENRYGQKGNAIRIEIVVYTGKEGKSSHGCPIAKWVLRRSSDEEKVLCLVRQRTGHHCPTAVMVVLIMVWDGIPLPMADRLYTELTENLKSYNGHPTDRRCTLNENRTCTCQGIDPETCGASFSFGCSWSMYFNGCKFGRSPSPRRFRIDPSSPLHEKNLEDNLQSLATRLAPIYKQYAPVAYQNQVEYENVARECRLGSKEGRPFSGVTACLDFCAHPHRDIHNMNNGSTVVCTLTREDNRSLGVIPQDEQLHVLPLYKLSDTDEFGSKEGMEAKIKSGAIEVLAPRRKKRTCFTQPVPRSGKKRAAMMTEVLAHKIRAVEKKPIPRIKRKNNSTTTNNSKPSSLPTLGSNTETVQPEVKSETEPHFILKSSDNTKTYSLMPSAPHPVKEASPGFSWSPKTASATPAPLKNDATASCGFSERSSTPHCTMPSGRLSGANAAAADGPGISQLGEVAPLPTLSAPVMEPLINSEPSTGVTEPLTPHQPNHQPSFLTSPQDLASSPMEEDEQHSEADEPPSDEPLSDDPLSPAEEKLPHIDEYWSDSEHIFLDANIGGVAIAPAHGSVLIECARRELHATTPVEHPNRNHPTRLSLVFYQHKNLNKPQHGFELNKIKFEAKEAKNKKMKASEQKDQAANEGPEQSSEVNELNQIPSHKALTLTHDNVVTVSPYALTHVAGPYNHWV

The target of one experiment is TET1-FLAG (UniProt Q8NFU7). Put plainly: co-IP; COS-7 cells expressing TET1-FLAG or TET2-FLAG (adenovirus) with an ETS protein (adenovirus or plasmid), 48 h; lysis in 50 mmol/L Tris-HCl pH 7.4, 150 mmol/L NaCl, 1% Triton X-100, 1 mmol/L EDTA; anti-FLAG immunoprecipitation, elution with FLAG peptide, western blot for FLAG and the ETS proteins.
Another experiment concerns the target TET2-FLAG (UniProt Q6N021). Described as above.

No constants are given. Whether binding was seen depends on the method and setting. Binding seen in cells or lysates may run through a third protein. Some results given as binding are weak or reduced against the parent protein; the word gives no strength.

B1: ERG (protein, UniProt P11308 1-479)
chain: MASTIKEALSVVSEDQSLFECAYGTPHLAKTEMTASSSSDYGQTSKMSPRVPQQDWLSQPPARVTIKMECNPSQVNGSRNSPDECSVAKGGKMVGSPDTVGMNYGSYMEEKHMPPPNMTTNERRVIVPADPTLWSTDHVRQWLEWAVKEYGLPDVNILLFQNIDGKELCKMTKDDFQRLTPSYNADILLSHLHYLRETPLPHLTSDDVDKALQNSPRLMHARNTGGAAFIFPNTSVYPEATQRITTRPDLPYEPPRRSAWTGHGHPTPQSKAAQPSPSTVPKTEDQRPQLDPYQILGPTSSRLANPGSGQIQLWQFLLELLSDSSNSSCITWEGTNGEFKMTDPDEVARRWGERKSKPNMNYDKLSRALRYYYDKNIMTKVHGKRYAYKFDFHGIAQALQPHPPESSLYKYPSDLPYMGSYHAHPQKMNFVAPHPPALPVTSSSFFAAPNPYWNSPTGGIYPNTRLPTSHMPSHLGTYY
In the case of B1, the binding entry is “no binding” in the experiment with TET1-FLAG and “binds” in the experiment with TET2-FLAG.

B2: ETV2 (protein, UniProt O00321 1-342)
chain: MDLWNWDEASPQEVPPGNKLAGLEGAKLGFCFPDLALQGDTPTATAETCWKGTSSSLASFPQLDWGSALLHPEVPWGAEPDSQALPWSGDWTDMACTAWDSWSGASQTLGPAPLGPGPIPAAGSEGAAGQNCVPVAGEATSWSRAQAAGSNTSWDCSVGPDGDTYWGSGLGGEPRTDCTISWGGPAGPDCTTSWNPGLHAGGTTSLKRYQSSALTVCSEPSPQSDRASLARCPKTNHRGPIQLWQFLLELLHDGARSSCIRWTGNSREFQLCDPKEVARLWGERKRKPGMNYEKLSRGLRYYYRRDIVRKSGGRKYTYRFGGRVPSLAYPDCAGGGRGAETQ
Consider B2, for which the binding result in the experiment with TET1-FLAG and in the experiment with TET2-FLAG was “binds” each time.

B3: GABPα (protein, UniProt Q06546 1-454)
chain: MTKREAEELIEIEIDGTEKAECTEESIVEQTYAPAECVSQAIDINEPIGNLKKLLEPRLQCSLDAHEICLQDIQLDPERSLFDQGVKTDGTVQLSVQVISYQGIEPKLNILEIVKPADTVEVVIDPDAHHAESEAHLVEEAQVITLDGTKHITTISDETSEQVTRWAAALEGYRKEQERLGIPYDPIQWSTDQVLHWVVWVMKEFSMTDIDLTTLNISGRELCSLNQEDFFQRVPRGEILWSHLELLRKYVLASQEQQMNEIVTIDQPVQIIPASVQSATPTTIKVINSSAKAAKVQRAPRISGEDRSSPGNRTGNNGQIQLWQFLLELLTDKDARDCISWVGDEGEFKLNQPELVAQKWGQRKNKPTMNYEKLSRALRYYYDGDMICKVQGKRFVYKFVCDLKTLIGYSAAELNRLVTECEQKKLAKMQLHGIAQPVTAVALATASLQTEKDN
Turning to B3, the binding result with TET1-FLAG and with TET2-FLAG was “no binding” each time.

B4: FLI-1 (protein, UniProt Q01543 1-452)
chain: MDGTIKEALSVVSDDQSLFDSAYGAAAHLPKADMTASGSPDYGQPHKINPLPPQQEWINQPVRVNVKREYDHMNGSRESPVDCSVSKCSKLVGGGESNPMNYNSYMDEKNGPPPPNMTTNERRVIVPADPTLWTQEHVRQWLEWAIKEYSLMEIDTSFFQNMDGKELCKMNKEDFLRATTLYNTEVLLSHLSYLRESSLLAYNTTSHTDQSSRLSVKEDPSYDSVRRGAWGNNMNSGLNKSPPLGGAQTISKNTEQRPQPDPYQILGPTSSRLANPGSGQIQLWQFLLELLSDSANASCITWEGTNGEFKMTDPDEVARRWGERKSKPNMNYDKLSRALRYYYDKNIMTKVHGKRYAYKFDFHGIAQALQPHPTESSMYKYPSDISYMPSYHAHQQKVNFVPPHPSSMPVTSSSFFGAASQYWTSPTGGIYPNPNVPRHPNTHVPSHLGSYY
Regarding B4, the binding result with TET1-FLAG was “no binding”; with TET2-FLAG, “binds”.
